Measurements published in PubChem BioAssay AID1347073 (National Center for Advancing Translational Sciences (NCATS), 2019).
The whole screen tested about 45,000 compounds, of which about 200 (0.44%) were called active. About 7% were inconclusive and are not listed. Calls come from the whole dose curve; as a rule, active = well fitted activation curve with a large enough effect; inconclusive = small, poorly fitted or top-dose-only effect; inactive = no such curve, though single readings can be large or run the other way. This is one part of the list.

Experiment: qHTS of TDP-43 Inhibitors: NCGC Sytravon Library Screen; note: 0% is about no effect; nearly all actives have a fitted effect of over 55% in size
Settings: yeast TDP-43 toxicity rescue, BacTiter-Glo growth, 24 h; series mostly up to 46.1 µM; growth rescue (activation): at the top concentration
Procedure, shortened: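 TDP-43-expressing yeast, pregrown in raffinose, seeded at OD600 0.02 in galactose medium with compound for 24 hr at 30 deg C. Growth read by BacTiter-Glo luminescence, so rescue of toxicity appears as activation.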

Row | Compound | growth rescue (activation)
1 | Cn1c(SCC(=O)Nc2ccc(Br)cc2)nc(O)cc1=O | inactive: 3.49%
2 | Cc1ccc([N+](=O)[O-])cc1NC(=O)CSc1n[nH]c(-c2cccnc2)n1 | inactive: -4.03%
3 | CCc1ccc(Cn2ncc3c(C(=O)O)cc(C)nc32)cc1 | inactive: 14%
4 | CC(=O)N1CCN(c2ccc(S(=O)(=O)N3CCCCC3)cc2[N+](=O)[O-])CC1 | inactive: 2.41%
5 | Cc1ccc(C(C)C)c(OCC(=O)NN=C2CCCCCCC2)c1 | inactive: 17%
6 | N#Cc1ccccc1OCC(=O)OCC(=O)N1CCCC1 | inactive: 0.653%
7 | Cc1noc(C)c1-c1ccc(C(=O)NCC(C)C)c2occc12 | inactive: 11.1%
8 | Cc1c(C(=O)c2ccc(F)cc2F)c2ccccn2c1CCC#N | inactive: 11.8%
9 | O=C(COC(=O)c1cccs1)Nc1ccccc1Cl | inactive: -6.28%
10 | Cc1ccc2c(c1)N(CC(=O)NCCCN1CCCCC1)C(=O)CO2 | inactive: 8.87%
11 | CSCCC(NS(=O)(=O)c1ccc(Cl)cc1)C(=O)OCC(=O)N1CCCc2ccccc21 (stereo not drawn) | inactive: -4.98%
12 | CCCCC(=O)Nc1cc(OCC)c(NC(=S)NC)cc1OCC | inactive: -1.36%
13 | CC(C)NS(=O)(=O)c1ccc(OCC(=O)NC(C)c2ccccc2)cc1 (stereo not drawn) | inactive: 0.0514%
14 | CC1(C)CC(=O)C=C(Nc2ccc(Cl)cc2)C1 | inactive: -1.04%
15 | O=C(CN1C(=O)c2ccccc2S1(=O)=O)Nc1cc(S(=O)(=O)N2CCCCC2)ccc1Cl | inactive: 20%
16 | Cc1ccc(CSc2nc3nc(C)cc(C)c3c(=O)[nH]2)cc1 | inactive: 10.5%
17 | CCN(c1ccccc1)C1(O)C(=O)c2ccccc2C1=O | inactive: 8.86%
18 | COc1ccc(Br)cc1S(=O)(=O)NCCN1CCOCC1 | inactive: 1.63%
19 | COc1cc(CN(C)C(C)C(=O)Nc2ccc([N+](=O)[O-])cc2Cl)ccc1OC(F)F (stereo not drawn) | inactive: -5.67%
20 | CN(C)c1cccc(C(=O)OCC(=O)N(C)c2ccccc2)c1 | inactive: 4.56%
21 | CSc1ncccc1C(=O)OCC(=O)NC1CC1 | inactive: 21.1%
22 | COc1ccc(N(C(=O)c2snc(C(N)=O)c2N)C(CC(C)C)C(=O)NCC2CCCO2)cc1 (stereo not drawn) | inactive: 4.09%

Row | Compound | growth rescue (activation)
23 | COc1ccc(NS(=O)(=O)c2cc(NC(=O)CNC(=O)c3cccc(OC)c3)ccc2C)cc1 | inactive: 17.1%
24 | CS(=O)(=O)N(CC(=O)Nc1ccc(F)c(F)c1)c1cccc([N+](=O)[O-])c1 | inactive: 25.6%
25 | CC(=O)Nc1ccc(NC(=O)COC(=O)CCc2nc3ccccc3s2)cc1 | inactive: 19.5%
26 | CCC(OC(=O)CN1C(=O)C(=O)c2ccccc21)C(=O)Nc1ccccc1OC (stereo not drawn) | inactive: -0.466%
27 | O=S1(=O)CC(NCc2ccccc2)C(Nc2ccc(Cl)cc2)C1 (stereo not drawn) | inactive: 20.7%
28 | COc1ccc(N2CCN(C(=O)C3(S(=O)(=O)c4ccc(C)cc4)CC3)CC2)cc1 | inactive: 5.37%
29 | CCOC(=O)c1c(NC(=O)COC(=O)c2ccccn2)sc2c1CCC2 | inactive: 28.3%
30 | CCN(CC)S(=O)(=O)c1ccc(N/N=C/c2ccc(O)cc2O)nc1 | inactive: -24.9%
31 | Brc1ccccc1C1=Nn2c(nnc2-c2ccco2)SC1 | inactive: 7.23%
32 | COc1ccc(C(=O)NC(=S)Nc2ccc(S(=O)(=O)Nc3cc(OC)ncn3)cc2)cc1 | inactive: -23.3%
33 | CCC(c1nnnn1Cc1ccc2c(c1)OCO2)N1CCN(c2ccc(F)cc2)CC1 (stereo not drawn) | inactive: 26.1%
34 | CC1(C)SC(=S)N(/N=C/c2ccccc2O)C1N(O)C(=O)Nc1ccccc1 (stereo not drawn) | inactive: 9.7%
35 | CC1(c2ccccc2)NC(=O)N(CC(=O)NCc2ccc3c(c2)OCO3)C1=O (stereo not drawn) | inactive: -3.58%
36 | Cc1cc(C(=O)N(C)Cc2c(F)cccc2Cl)c2ccccc2n1 | inactive: 4.46%
37 | CCSCc1nnc(SCC(=O)c2ccc(OC)cc2)n1C | inactive: 3.12%
38 | CC(C)(C)n1nnnc1C(c1ccc(F)cc1)N1CCC(C(N)=O)CC1 (stereo not drawn) | inactive: -4.46%
39 | O=c1[nH]cnc2sc3c(c12)CCCCC3 | inactive: 20.5%
40 | COc1ccc(NC(=O)CSc2nnnn2C2CCCC2)cc1 | inactive: 7.17%
41 | N#CCCn1cc(C(=O)NCc2ccccc2)c(-c2cccs2)n1 | inactive: 16%
42 | CCCC(=O)NC(=S)Nc1cccc(NC(=O)c2ccccc2)c1 | inactive: 12.7%
43 | COc1ccc(Nc2nc(C)nc3sc4c(c23)CCC4)cc1O | inactive: 7.45%
44 | CCOC(=O)c1oc2ccc3c(c2c1C)C(=O)CC1(CCN(C(=O)OCC)CC1)O3 | inactive: 22.4%

Row | Compound | growth rescue (activation)
45 | CCN(CC)S(=O)(=O)c1cccc(C(=O)OCC(=O)Nc2ccc3c(c2)c2ccccc2n3CC)c1 | inactive: -18.3%
46 | CCn1c(SCC(=O)NCc2ccccc2)nnc1-c1cccnc1 | inactive: -5.14%
47 | COCCNC(=O)C(c1ccc(Cl)cc1)N(CCOC)C(=O)CCC(=O)Nc1ccccn1 (stereo not drawn) | inactive: -0.306%
48 | Cc1c(C#N)c2ccccc2n1C | inactive: 7.94%
49 | COc1ccc(OCc2nnc(SCC(=O)N3CCCCC3)o2)cc1 | inactive: 16.4%
50 | COc1ccc(Br)c(C(=O)NCCC(C)C)c1 | inactive: -7.31%
51 | COc1cc(C)c(NC(=O)COc2ccc3c(c2)OCO3)cc1C | inactive: -0.759%
52 | Cc1ccc(S(=O)(=O)N2CCC[C@H]2C(=O)NC2CCCCC2)cc1 | inactive: 24.3%
53 | Cc1cc(NC(=O)c2ccc(Cl)cc2Cl)n(CCC#N)n1 | inactive: 14.8%
54 | CN(C)S(=O)(=O)c1ccc(Cl)c(NC(=O)CNC2(C)CCS(=O)(=O)C2)c1 (stereo not drawn) | inactive: 7.81%
55 | COc1ccc(C(=O)Nc2ccc(NC(=O)C3CC3)cn2)cc1 | inactive: 17.3%
56 | CSCC[C@H](NC(=O)OC(C)(C)C)C(=O)N/N=C/c1cccc2cccnc12 | inactive: -11.4%
57 | Cc1ccc(CNC(=O)c2cc(C)nn2-c2ccccc2)cc1 | inactive: 24%
58 | N#C/C(=C(/O)COC(=O)COc1ccc(Cl)cc1)c1nc2ccccc2[nH]1 | inactive: -1.2%
59 | CC(=O)/C(N=Nc1ccc2c(c1)OCCO2)=C(\C)O | inactive: 16.1%
60 | CC(=O)Nc1nc(-c2ccc3c(c2)CCN3C(=O)C2CC2)c(C)s1 | inactive: -0.621%
61 | CCOC(=O)C1CCCN(C(=O)COc2ccc(S(=O)(=O)N3CCOCC3)cc2)C1 (stereo not drawn) | inactive: 17.3%
62 | CC1(C)CC(=O)/C(=C(/O)Cc2ccccc2)C(=NCCc2ccccc2)C1 | inactive: 26.6%
63 | CC(=O)Cc1cc(O)c2ccccc2c1OC(=O)c1ccccc1 | inactive: 15%
64 | COc1ccc(NC(=O)N2CCCC(C(=O)NCc3ccccc3F)C2)cc1 (stereo not drawn) | inactive: 4.83%
65 | COc1ccc(S(=O)(=O)N2CCCC(C(=O)NC3CCCC3)C2)cc1OC (stereo not drawn) | inactive: 1.89%
66 | O=C(COC(=O)/C=C/c1cccs1)Nc1nc(-c2ccccc2)cs1 | inactive: -13.7%

Row | Compound | growth rescue (activation)
67 | CC1CCCC(NC(=O)COC(=O)/C=C/c2ccc(S(=O)(=O)N3CCOCC3)cc2)C1C (stereo not drawn) | inactive: 32.9%
68 | Cc1cc(C)n2nc(C(=O)OCC(=O)Nc3ccc(C)c(S(=O)(=O)N4CCOCC4)c3)nc2n1 | inactive: -6.39%
69 | COc1ccc(CCNC(=O)CSc2cccc3cccnc23)cc1OC | inactive: -7.14%
70 | CCn1c2ccc(F)cc2c2nc3ccccc3nc21 | inactive: 6.65%
71 | c1ccc(CNc2nc(-c3cccnc3)cs2)cc1 | inactive: 18.1%
72 | O=C(Nc1cccc(S(=O)(=O)N2CCOCC2)c1)c1cn(-c2ccccc2)nc1-c1ccccc1 | inactive: -4.52%
73 | CCOc1ccc2nc(SCc3ccc(OC)cc3)sc2c1 | inactive: 9.11%
74 | Cc1ccc(/C=N/NC(=O)CSc2nc3ccccc3o2)cc1 | inactive: 7.47%
75 | Cc1nnc(NC(=O)Cn2nc(C)c3ccccc3c2=O)s1 | inactive: 7.94%
76 | COCCNc1nc(-c2ccc(OC)cc2)c(-c2ccc(OC)cc2)s1 | inactive: 12.3%
77 | COc1ccc(S(=O)(=O)N(CC(=O)NCc2ccncc2)c2ccc(C)cc2)cc1OC | inactive: 4.86%
78 | CNC(=S)N1N=C(c2ccc(Br)cc2)CC1c1ccc(N(C)C)cc1 (stereo not drawn) | inactive: 15.9%
79 | Cc1c(C(=O)O)cccc1N1C(=O)Nc2ccccc2N1O | inactive: 29.8%
80 | CN1N=C(C(=O)N2CCN(c3ccc([N+](=O)[O-])cc3)CC2)CCC1=O | inactive: 20.1%
81 | COc1ccc(C(CNc2ccc(S(=O)(=O)N3CCN(C)CC3)cc2[N+](=O)[O-])N(C)C)cc1 (stereo not drawn) | inactive: 22.1%
82 | COc1cc(NC(=S)NC(=O)CCc2ccccc2)cc(OC)c1 | inactive: -13.3%
83 | COc1ccc(NS(=O)(=O)c2cccc(C(=O)NN=Cc3ccc(OC)c(O)c3)c2)cc1 | inactive: 8.62%
84 | COc1ccc(-c2ccc(C(=O)Nc3cccc(N(C)C)c3)c3occc23)c(C)c1 | inactive: 29.6%
85 | c1ccc(Nc2nc(-c3ccncc3)cs2)nc1 | inactive: 7.93%
86 | Cc1ccc(C(O)c2ncc(-c3ccc(Cl)cc3)[nH]2)cc1F (stereo not drawn) | inactive: 3.55%
87 | O=[N+]([O-])c1ccc(C(O)CN2CCN(c3ccccc3)CC2)cc1 (stereo not drawn) | inactive: 6.17%
88 | CCOc1ccc(-n2c(SCC(N)=O)nnc2-c2ccco2)cc1 | inactive: 1.21%

Row | Compound | growth rescue (activation)
89 | CN(Cc1ccccc1)C(=O)c1cc2cc(F)ccc2[nH]1 | inactive: 8.35%
90 | Cc1ccccc1-c1cnc(C(O)c2cc(Cl)cc(Cl)c2)[nH]1 (stereo not drawn) | inactive: 17.3%
91 | CCN(CC)P(=O)(c1ccccc1)c1c(C)nc2ccccn12 (stereo not drawn) | inactive: 7.43%
92 | Cc1ccc2nc(-c3ccc(NC(=O)CCN4C(=O)c5ccccc5C4=O)cc3)sc2c1 | inactive: -9.48%
93 | Cc1ccc(OCC(=O)NCCCNC(=O)c2ccncc2)cc1C | inactive: 4.59%
94 | O=C(CCn1cnc2ccccc21)N/N=C/C=C/c1ccccc1 | inactive: 13.2%
95 | Cc1ccn2c(Nc3ccccc3)c(-c3ccccn3)nc2c1 | inactive: 10.5%
96 | COC(=O)CCCCCCCCCC[N+]1(C)CCCCC1 | inactive: -13%
97 | CC(=O)Nc1ccc(-c2ccnc3c2CC(C)(C(=O)NCCc2ccccc2)O3)cc1 (stereo not drawn) | inactive: 3.43%
98 | Cc1ccc(C(=O)N/N=C/c2ccc(-c3ccccc3[N+](=O)[O-])o2)cn1 | inactive: 10.7%
99 | O=C(CSC1CCCCC1)Nc1nccs1 | inactive: 29.7%
100 | CCOC(=O)C1CCCCN1Cc1ccc(OC)c(OC)c1 (stereo not drawn) | inactive: 1.66%
101 | O=C(NCCCN1CCN(c2cccc(Cl)c2)CC1)c1cccc(N2CCCC2=O)c1 | inactive: -7.5%
102 | Cc1ccc(S(=O)(=O)Nc2nc3ccccc3nc2NCC2CCCO2)cc1 (stereo not drawn) | inactive: 21.7%
103 | COCCNC(=O)CN(C(=O)CCC(=O)Nc1nccs1)c1ccc2c(c1)OCO2 | inactive: 0.753%
104 | Cc1cc(NC(=O)COC(=O)c2cc(S(=O)(=O)N3CCOCC3)ccc2N2CCCCC2)no1 | inactive: 13.2%
105 | CC1(C(=O)NS(=O)(=O)c2ccc(F)cc2F)CCN1C(=O)c1cccc(F)c1 (stereo not drawn) | inactive: -5.7%
106 | COc1ccc(N(C(=O)c2snc(C(N)=O)c2N)C(C(=O)NC2CCCC2)c2ccc(OC)c(OC)c2)cc1 (stereo not drawn) | inactive: -2.59%
107 | O=C(O)Cc1sc(-c2cccnc2)nc1-c1ccc(Br)cc1 | inactive: -0.36%
108 | CCCOc1ccc(CNC(=O)c2ccc3c(c2)N(Cc2ccccc2)CCS3)cc1 | inactive: -2.63%
